According to PubChem BioAssay (NCI):
Several values for one entry are separate records, joined by “and”; a condition that tells them apart may be missing. Equal entries are not always repeated.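 Compound exposure: 48 hours, 5 concentrations, 96-well plates. Here, GI50 denotes the concentration required for 50% inhibition of growth. At the TGI there is no net growth.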

Each compound was assayed on NCI-H322M lung (assay: NCI tumour cell line growth inhibition, 48 h).
`C=C1C(=O)O[C@H]2[C@H]1CC/C(COC(=O)c1cc3ccccc3s1)=C\CC[C@@]1(C)O[C@@H]21` was tested, and the GI50 was 1.98 µM and the TGI was 4.68 µM.
`CN(C)CCCN1c2ccccc2Sc2cnccc21` was tested, and the TGI was greater than 100 µM.
With `CON(C)C(=O)N1N=C(c2cc(F)ccc2F)SC1(CCCN)c1ccccc1` (configuration not stated) the GI50 was less than 0.01 µM and the TGI was 18 µM and 17.2 µM.
`COc1ccc(N2C(=O)C3ON(C(C(N)=O)c4ccccc4)C(c4cc5ccccc5c5ccccc45)C3C2=O)cc1` (configuration not stated) showed a TGI greater than 50 µM.
In the case of `CCOC(=O)c1c(C)nc2c(c1N)/C(=C/c1ccc(OC)cc1)C(=O)N2Cc1ccc(F)cc1`, the GI50 is reported as 1.16 µM and the TGI is reported as 2.55 µM.
Work on `O=c1c2cc(S(=O)(=O)O)ccc2nc(COc2ccc(Oc3ccc(Cl)cc3Cl)cc2)n1-c1ccc(Cl)cc1Oc1c(Cl)cccc1Cl` yielded a TGI greater than 100 µM.
Work on `Cc1[nH]c2ccccc2c1C1Cc2ccccc2N1C(=O)/C(Cl)=C/c1ccccc1` (configuration not stated) yielded a TGI greater than 100 µM.
In the case of `N.N.O=C([O-])P(=O)([O-])[O-].[Na+].[Pt+4]`, the GI50 is reported as greater than 100 µM and the TGI is reported as greater than 100 µM.
`C=C1CC[C@H](O)C(C)(C)[C@@H]1CC/C(C)=C/CC/C=C(\C)CC/C=C(\C)CCC=C(C)C` gave a TGI greater than 100 µM.
Compound `Cc1nc2ccccc2n1C(=O)c1c(F)c(F)c(F)c(F)c1F` has a TGI greater than 100 µM.
`CCn1c2ccccc2n2c(=O)c3c(c(C#N)c12)CCCC3` was tested, and the TGI was greater than 100 µM.
Work on `c1cc2c(ncc3cscc32)s1` yielded a TGI greater than 100 µM.
In the case of `CCCS(=O)(=O)/C(=C(\c1ccc(Br)cc1)S(=O)(=O)CCC)c1ccc(Br)cc1`, the TGI is reported as greater than 10 µM.
With `N#Cc1nc(C2=C(Cl)c3ccccc3OC2)[nH]c1C#N` the TGI was 75.6 µM.
For `CCOC(=O)C1(C(=O)OCC)C[C@H](C)[C@](C)(O)C1`, the TGI was greater than 100 µM.
`COc1cc(/C=C2\N=C(c3ccccc3)N(c3nc4c(OC)ccc(OC)c4s3)C2=O)ccc1O` was tested, and the TGI was greater than 100 µM.
`COc1ccc(-c2cc(=O)c3ccccc3[nH]2)c(OC)c1` gave a TGI greater than 100 µM.
For `C=C(C)C(=O)OC1CCC2(C)C(CCC3C2CCC2(C)C(c4ccc(=O)oc4)CC4OC432)C1` (configuration not stated), the TGI was 41.8 µM.
`COC(=O)C1=C(C(=O)OC)c2cc(OC)ccc2C(C(=S)N(C)C)S1` (configuration not stated) showed a TGI greater than 100 µM.
`CC(C)c1cc2c(O)c(c1)Cc1cc(C(C)C)cc(c1O)Cc1cc(C(C)C)cc(c1O)Cc1cc(C(C)C)cc(c1O)C2` showed a TGI greater than 100 µM.
`CC(=O)N[C@@H](Cc1ccc(O)cn1)C(=O)NCc1cccc(Cl)c1` gave a TGI greater than 100 µM.
Compound `COc1ccc(/C(Cl)=C(\C=O)c2ccc([N+](=O)[O-])cc2)cc1` has a TGI greater than 82 µM.
`Cc1ccc(/C=C2\CCC/C(=C\c3ccc(O)c(CN4CCCCC4)c3)C2=O)cc1` was tested, and the TGI was 43 µM.
Compound `O=C(O)Cc1cc(O)c(CC(=O)O)cc1O` has a TGI greater than 100 µM.
`N#Cc1cccc(NC(=O)c2cc(-c3ccc(F)cc3F)ccc2O)c1` was tested, and the GI50 was 2.84 µM and the TGI was 9.42 µM.
In the case of `Cc1ccc2[nH]c(C(=O)NN3C(=O)C(C)SC34CCCC(C)C4)c(-c3ccccc3)c2c1` (configuration not stated), the GI50 is reported as greater than 100 µM and the TGI is reported as greater than 100 µM.
`Cc1ccc2c(c1)CN(C(=O)CCC(=O)OCc1ccccc1)c1ccc(C)cc1CN2C(=O)CCC(=O)OCc1ccccc1` gave a TGI greater than 100 µM.
In the case of `CCO/N=C(/N)c1ncn(Cc2ccccc2)c1NCC(OCC)OCC`, the TGI is reported as greater than 100 µM.
With `COc1ccc(C2C3=C(Nc4ncnn42)c2ccccc2OC3c2ccccc2)cc1` (configuration not stated) the TGI was 88.8 µM.
With `COc1cc2c(c(OC)c1OC)C(=O)[C@@H]1c3ccc([N+](=O)[O-])cc3C(=O)N(CCCBr)[C@H]21` the GI50 was 19.8 µM and the TGI was 94.9 µM.
`CCC(=O)c1c(C(F)(F)F)n([O-])c2ccc(C)cc2[n+]1=O` gave a GI50 of 0.0246 µM and a TGI of 4.09 µM.
`C/C=C(/C)C(=O)O[C@H]1C[C@@H]2[C@@H](O)c3occ(C)c3C[C@]2(C)[C@@H](C)C1` gave a TGI of 35 µM.
`CCOC(=O)CCn1[nH]c(=O)c(Cl)c(Cl)c1=O` gave a TGI greater than 100 µM.
For `CC(C)c1ccc(C(c2ccc(OCC(=O)O)cc2)c2ccc(C(C)C)cc(=O)c2O)c(O)c(=O)c1`, the TGI was greater than 100 µM.
For `Cc1ccc(NC(=O)c2sc3nc(C)c(C(O)c4ccccc4)cc3c2N)cc1` (configuration not stated), the GI50 was 0.509 µM and the TGI was greater than 79.2 µM.
With `Nc1ncn(C2CC(O)C(CO)O2)c(=O)n1` (configuration not stated) the TGI was greater than 375 µM.
`c1cc[c]([Pb]([c]2ccccc2)[c]2ccccc2)cc1` showed a GI50 of 25.1 µM and a TGI greater than 100 µM.
For `COc1ccc2c3c(coc13)C(CCC(=O)O)CC2` (configuration not stated), the TGI was greater than 100 µM.
For `CS(=O)(=O)c1cc(=O)c2ccccc2s1`, the TGI was 30.7 µM.
Compound `C=C(CC[C@@H](C)[C@H]1CC[C@@]2(C)C3=C(CC[C@]12C)[C@@]1(C)CC[C@H](O)[C@@H](C)C1CC3)C(C)C` (some centres not stated) has a TGI of 2.3 µM.
With `Cc1ccc2c(c1)C1(C)OC(C=CC1=O)O2` (configuration not stated) the TGI was 17 µM.
In the case of `C=C[C@H]1C[C@@H]2C[C@@H]3[C@H]4C/C=C\C(=O)NCCCC5NC(=O)C(=C(O)/C=C/[C@@H]4CC(=O)[C@H]3[C@@H]2[C@H]1C)C5=O` (some centres not stated), the GI50 is reported as 1.58 µM and the TGI is reported as 3.08 µM.
Work on `N#C/C(N)=C(\C#N)N=CN` yielded a TGI greater than 100 µM.
Work on `Fc1ccc(C2SCc3nc4ccccc4n32)cc1Cl` (configuration not stated) yielded a TGI greater than 100 µM.
Compound `O=C1NCCCNCCCNCCCNC(=O)c2cccc1n2` has a TGI greater than 100 µM.
Compound `O=C(N/N=C\c1cccc(O)c1)c1ccncc1` has a TGI greater than 100 µM.
